Data from the supplement of paper PMC7826260.
Some of the results follow. Viral Rep nickase domains cut single-stranded DNA in vitro (1 h at 37 °C, 3 µM enzyme); the outer parts of the 90-letter strands are left off. Values are log2 of uncut reads against the no-enzyme pool; strong cutting gives strongly negative numbers. There is no active / inactive call. Because reads are shares of a total, they shift together; uncut strands gain when others are lost, and binding without cutting may add a little.

Tests used:
Experiment in all cases: uncleaved DNA left, log2 of reads against the no-enzyme library (log2 ratio); higher = less cleavage (more negative = more Rep cleavage of the k-mer); sequences stand for … in CTCGTCCG…ACCGGAGA
[1] = tested on: T1, Rep nickase domain of Muscovy duck circovirus
T1 sequence (protein, residues 1-111, tag omitted): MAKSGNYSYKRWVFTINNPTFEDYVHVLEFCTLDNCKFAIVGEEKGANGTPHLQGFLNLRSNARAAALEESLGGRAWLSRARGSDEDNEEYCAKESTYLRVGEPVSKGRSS
Description: (§1)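 A pool of 90-nt single-stranded DNAs with seven random bases just before the constant AC of the nick site (name = the seven bases) was cut by 3 µM recombinant His6-SUMO-tagged Rep nickase domain (300 nM DNA, 50 mM HEPES pH 8.0, 50 mM NaCl, 1 mM MnCl2, 1 h, 37 °C, three replicates). Uncut DNA was amplified and sequenced.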

[2] = tested on: T2, Rep nickase domain of banana bunchy top virus
T2 sequence (protein, residues 1-94, tag omitted): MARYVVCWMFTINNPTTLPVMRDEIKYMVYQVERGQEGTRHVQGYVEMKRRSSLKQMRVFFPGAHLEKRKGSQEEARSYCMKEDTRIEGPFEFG
Description: as §1

[3] = tested on: T3, Rep nickase domain of cabbage leaf curl virus
T3 sequence (protein, residues 1-116, tag omitted): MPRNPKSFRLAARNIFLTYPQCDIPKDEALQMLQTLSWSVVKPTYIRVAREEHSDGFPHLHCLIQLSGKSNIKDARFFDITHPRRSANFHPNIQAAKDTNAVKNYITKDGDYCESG
Description: as §1

[4] = tested on: T4, Rep nickase domain of chickpea chlorotic dwarf virus
T4 sequence (protein, residues 1-124, tag omitted): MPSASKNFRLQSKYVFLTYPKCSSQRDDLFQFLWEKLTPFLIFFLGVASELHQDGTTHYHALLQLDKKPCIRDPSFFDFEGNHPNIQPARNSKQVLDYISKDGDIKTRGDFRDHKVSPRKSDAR
Description: as §1

[5] = tested on: T5, Rep nickase domain of faba bean necrotic yellows virus
T5 sequence (protein, residues 1-98, tag omitted): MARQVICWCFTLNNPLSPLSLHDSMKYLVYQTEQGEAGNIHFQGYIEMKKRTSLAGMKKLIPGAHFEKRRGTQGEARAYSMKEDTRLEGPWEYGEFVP
Description: as §1

[6] = tested on: T6, Rep nickase domain of maize striate mosaic virus
T6 sequence (protein, residues 1-117, tag omitted): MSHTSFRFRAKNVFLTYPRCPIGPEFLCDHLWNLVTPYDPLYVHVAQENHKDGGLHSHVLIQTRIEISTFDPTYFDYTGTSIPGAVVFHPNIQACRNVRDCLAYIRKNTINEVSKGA
Description: as §1

[7] = tested on: T7, Rep nickase domain of porcine circovirus 2
T7 sequence (protein, residues 2-116, tag omitted): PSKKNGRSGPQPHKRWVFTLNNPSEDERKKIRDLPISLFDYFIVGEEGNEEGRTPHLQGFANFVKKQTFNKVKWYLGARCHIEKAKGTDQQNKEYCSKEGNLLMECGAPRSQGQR
Description: as §1

[8] = tested on: T8, Rep nickase domain of tomato golden mosaic virus
T8 sequence (protein, residues 1-124, tag omitted): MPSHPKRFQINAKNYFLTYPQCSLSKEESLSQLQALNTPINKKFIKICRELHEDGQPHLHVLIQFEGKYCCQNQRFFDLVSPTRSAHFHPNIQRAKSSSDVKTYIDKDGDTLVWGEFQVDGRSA
Description: as §1

[9] = tested on: T9, Rep nickase domain of tomato yellow leaf curl virus
T9 sequence (protein, residues 1-136, tag omitted): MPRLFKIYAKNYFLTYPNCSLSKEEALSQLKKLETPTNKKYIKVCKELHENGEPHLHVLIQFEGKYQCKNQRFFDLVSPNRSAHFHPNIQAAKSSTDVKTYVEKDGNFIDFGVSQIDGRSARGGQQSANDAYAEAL
Description: as §1

[10] = tested on: T10, Rep nickase domain of wheat dwarf virus
T10 sequence (protein, residues 1-137, tag omitted): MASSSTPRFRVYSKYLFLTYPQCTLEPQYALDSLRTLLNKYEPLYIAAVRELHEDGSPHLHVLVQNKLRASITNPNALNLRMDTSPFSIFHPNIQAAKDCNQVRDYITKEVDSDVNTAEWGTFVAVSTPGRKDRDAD
Description: as §1

## CCGTAAT
[1]
  uncleaved DNA left (log2): -1.78
[2]
  uncleaved DNA left (log2): -0.391
[3]
  uncleaved DNA left (log2): -1.66
[4]
  uncleaved DNA left (log2): -2.05
[5]
  uncleaved DNA left (log2): -1.19
[6]
  uncleaved DNA left (log2): -0.457
[7]
  uncleaved DNA left (log2): -3.05
[8]
  uncleaved DNA left (log2): -1.03
[9]
  uncleaved DNA left (log2): -0.26
[10]
  uncleaved DNA left (log2): -2.03

## AGTTTAT
[1]
  uncleaved DNA left (log2): -0.37
[2]
  uncleaved DNA left (log2): -0.113
[3]
  uncleaved DNA left (log2): 0.157
[4]
  uncleaved DNA left (log2): -0.351
[5]
  uncleaved DNA left (log2): -0.0677
[6]
  uncleaved DNA left (log2): -0.0361
[7]
  uncleaved DNA left (log2): -3.54
[8]
  uncleaved DNA left (log2): -0.0947
[9]
  uncleaved DNA left (log2): -0.0473
[10]
  uncleaved DNA left (log2): -0.0205

## TGTTAGG
[1]
  uncleaved DNA left (log2): 0.0745
[2]
  uncleaved DNA left (log2): 0.158
[3]
  uncleaved DNA left (log2): 0.443
[4]
  uncleaved DNA left (log2): 1.28
[5]
  uncleaved DNA left (log2): 0.16
[6]
  uncleaved DNA left (log2): 1.62
[7]
  uncleaved DNA left (log2): 0.22
[9]
  uncleaved DNA left (log2): 0.117
[10]
  uncleaved DNA left (log2): 0.198

## CAAGAAG
[1]
  uncleaved DNA left (log2): 0.0248
[2]
  uncleaved DNA left (log2): -0.000409
[3]
  uncleaved DNA left (log2): -0.617
[4]
  uncleaved DNA left (log2): -0.333
[5]
  uncleaved DNA left (log2): 0.26
[6]
  uncleaved DNA left (log2): -0.914
[7]
  uncleaved DNA left (log2): 0.269
[8]
  uncleaved DNA left (log2): 0.0628
[9]
  uncleaved DNA left (log2): 0.0313
[10]
  uncleaved DNA left (log2): -0.0372

## TAAAAGC
[1]
  uncleaved DNA left (log2): -0.0243
[2]
  uncleaved DNA left (log2): -0.0726
[3]
  uncleaved DNA left (log2): -0.396
[4]
  uncleaved DNA left (log2): -1.26
[5]
  uncleaved DNA left (log2): 0.0404
[6]
  uncleaved DNA left (log2): -1.24
[7]
  uncleaved DNA left (log2): 0.109
[9]
  uncleaved DNA left (log2): 0.00931
[10]
  uncleaved DNA left (log2): -0.159

## CGGCTCC
[1]
  uncleaved DNA left (log2): -0.0935
[2]
  uncleaved DNA left (log2): -0.102
[3]
  uncleaved DNA left (log2): 0.0189
[4]
  uncleaved DNA left (log2): 0.151
[5]
  uncleaved DNA left (log2): -0.0941
[6]
  uncleaved DNA left (log2): 0.712
[7]
  uncleaved DNA left (log2): -0.102
[8]
  uncleaved DNA left (log2): -0.124
[9]
  uncleaved DNA left (log2): -0.0948
[10]
  uncleaved DNA left (log2): -0.115

## TCAACAA
[1]
  uncleaved DNA left (log2): 0.0327
[2]
  uncleaved DNA left (log2): 0.0608
[3]
  uncleaved DNA left (log2): 0.0397
[4]
  uncleaved DNA left (log2): -0.949
[5]
  uncleaved DNA left (log2): 0.0856
[6]
  uncleaved DNA left (log2): -0.399
[7]
  uncleaved DNA left (log2): 0.0517
[8]
  uncleaved DNA left (log2): 0.0343
[9]
  uncleaved DNA left (log2): 0.0999
[10]
  uncleaved DNA left (log2): 0.0861

## AATAGGT
[1]
  uncleaved DNA left (log2): 0.0674
[2]
  uncleaved DNA left (log2): 0.012
[3]
  uncleaved DNA left (log2): 0.399
[4]
  uncleaved DNA left (log2): 1.25
[5]
  uncleaved DNA left (log2): 0.209
[6]
  uncleaved DNA left (log2): 1.59
[7]
  uncleaved DNA left (log2): -0.033
[8]
  uncleaved DNA left (log2): 0.102
[9]
  uncleaved DNA left (log2): -0.0523
[10]
  uncleaved DNA left (log2): 0.106

## ATTCATG
[1]
  uncleaved DNA left (log2): 0.0372
[2]
  uncleaved DNA left (log2): 0.00255
[3]
  uncleaved DNA left (log2): -0.678
[4]
  uncleaved DNA left (log2): -0.707
[5]
  uncleaved DNA left (log2): 0.0102
[6]
  uncleaved DNA left (log2): -1.12
[7]
  uncleaved DNA left (log2): 0.0622
[9]
  uncleaved DNA left (log2): 0.0291
[10]
  uncleaved DNA left (log2): -0.131

## GGGCAAA
[1]
  uncleaved DNA left (log2): 0.121
[2]
  uncleaved DNA left (log2): 0.132
[3]
  uncleaved DNA left (log2): 0.94
[4]
  uncleaved DNA left (log2): 2.04
[5]
  uncleaved DNA left (log2): 0.0655
[6]
  uncleaved DNA left (log2): 2.27
[7]
  uncleaved DNA left (log2): 0.24
[8]
  uncleaved DNA left (log2): 0.0842
[9]
  uncleaved DNA left (log2): -0.0187
[10]
  uncleaved DNA left (log2): 0.237

## TGGCTCG
[1]
  uncleaved DNA left (log2): -0.0562
[2]
  uncleaved DNA left (log2): -0.0705
[3]
  uncleaved DNA left (log2): -0.637
[4]
  uncleaved DNA left (log2): -0.621
[5]
  uncleaved DNA left (log2): -0.115
[6]
  uncleaved DNA left (log2): -1.03
[7]
  uncleaved DNA left (log2): 0.00941
[8]
  uncleaved DNA left (log2): -0.227
[9]
  uncleaved DNA left (log2): -0.215
[10]
  uncleaved DNA left (log2): -0.208

## CTTTGGT
[1]
  uncleaved DNA left (log2): -0.685
[2]
  uncleaved DNA left (log2): -0.207
[3]
  uncleaved DNA left (log2): -0.268
[4]
  uncleaved DNA left (log2): -0.475
[5]
  uncleaved DNA left (log2): -0.104
[6]
  uncleaved DNA left (log2): -0.94
[7]
  uncleaved DNA left (log2): -1.19
[8]
  uncleaved DNA left (log2): -0.105
[9]
  uncleaved DNA left (log2): -0.0797
[10]
  uncleaved DNA left (log2): -0.157

## CGTCGCT
[1]
  uncleaved DNA left (log2): 0.186
[2]
  uncleaved DNA left (log2): -0.0153
[3]
  uncleaved DNA left (log2): -0.323
[4]
  uncleaved DNA left (log2): -0.857
[5]
  uncleaved DNA left (log2): 0.0463
[6]
  uncleaved DNA left (log2): -0.733
[7]
  uncleaved DNA left (log2): -0.0636
[8]
  uncleaved DNA left (log2): -0.0973
[9]
  uncleaved DNA left (log2): 0.0824
[10]
  uncleaved DNA left (log2): -0.0641

## CACAGTA
[1]
  uncleaved DNA left (log2): -0.00219
[2]
  uncleaved DNA left (log2): -0.0327
[3]
  uncleaved DNA left (log2): -0.266
[4]
  uncleaved DNA left (log2): -2.15
[5]
  uncleaved DNA left (log2): -0.00828
[6]
  uncleaved DNA left (log2): -0.709
[7]
  uncleaved DNA left (log2): -0.137
[9]
  uncleaved DNA left (log2): 0.078
[10]
  uncleaved DNA left (log2): 0.054

## GTCCAGC
[1]
  uncleaved DNA left (log2): 0.0464
[2]
  uncleaved DNA left (log2): 0.12
[3]
  uncleaved DNA left (log2): 0.267
[4]
  uncleaved DNA left (log2): 0.753
[5]
  uncleaved DNA left (log2): 0.0625
[6]
  uncleaved DNA left (log2): 1.07
[7]
  uncleaved DNA left (log2): 0.0432
[8]
  uncleaved DNA left (log2): 0.123
[9]
  uncleaved DNA left (log2): 0.105
[10]
  uncleaved DNA left (log2): 0.0708
